These results are taken from paper PMC9911399, “Two distinct binding modes provide the RNA-binding protein RbFox with extraordinary sequence specificity”.

Numbering of substitutions follows the chain as printed; changes in the protein carry UniProt numbers. This is one part of the list.

Sequences and labels used below:
T1: RBFOX1 RRM RbFoxmut (Fox-RRM*) (Homo sapiens, UniProt Q9NWB1 109-208, R118D;E147R;N151S;E152T)
T1 sequence: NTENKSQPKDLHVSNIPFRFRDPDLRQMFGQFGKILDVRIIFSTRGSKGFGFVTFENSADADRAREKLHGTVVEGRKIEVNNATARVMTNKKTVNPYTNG

B1: UCCGUUA (DNA:RNA)
RNA: GGGAGACCGGAAUUCAGAUUGUCCUCCGUUAUUAAAUCCCGUCGUAGCCACCA
DNA 1: CAATCTGAATTCCGGTCTCCC
DNA 2: TGGTGGCTACGACGGGATT
B2: GUACAGU (DNA:RNA)
RNA: GGGAGACCGGAAUUCAGAUUGUCCGUACAGUUUAAAUCCCGUCGUAGCCACCA
DNA 1: CAATCTGAATTCCGGTCTCCC
DNA 2: TGGTGGCTACGACGGGATT
B3: CCAGACU (DNA:RNA)
RNA: B2 RNA with G25C, U26C, C28G, G30C
DNA 1: CAATCTGAATTCCGGTCTCCC
DNA 2: TGGTGGCTACGACGGGATT
B4: UGAUCUG (DNA:RNA)
RNA: B1 RNA with C26G, C27A, G28U, U29C, A31G
DNA 1: CAATCTGAATTCCGGTCTCCC
DNA 2: TGGTGGCTACGACGGGATT
B5: GCAAGCU (DNA:RNA)
RNA: B2 RNA with U26C, C28A, A29G, G30C
DNA 1: CAATCTGAATTCCGGTCTCCC
DNA 2: TGGTGGCTACGACGGGATT
B6: AGAUUGA (DNA:RNA)
RNA: B2 RNA with G25A, U26G, C28U, A29U, U31A
DNA 1: CAATCTGAATTCCGGTCTCCC
DNA 2: TGGTGGCTACGACGGGATT
B7: GAGGAAG (DNA:RNA)
RNA: B2 RNA with U26A, A27G, C28G, G30A, U31G
DNA 1: CAATCTGAATTCCGGTCTCCC
DNA 2: TGGTGGCTACGACGGGATT
B8: AAAGUAG (DNA:RNA)
RNA: B1 RNA with U25A, C26A, C27A, U30A, A31G
DNA 1: CAATCTGAATTCCGGTCTCCC
DNA 2: TGGTGGCTACGACGGGATT
B9: GGCUUUA (DNA:RNA)
RNA: B1 RNA with U25G, C26G, G28U
DNA 1: CAATCTGAATTCCGGTCTCCC
DNA 2: TGGTGGCTACGACGGGATT
B10: GGAUCUU (DNA:RNA)
RNA: B2 RNA with U26G, C28U, A29C, G30U
DNA 1: CAATCTGAATTCCGGTCTCCC
DNA 2: TGGTGGCTACGACGGGATT
B11: GCCAGAG (DNA:RNA)
RNA: B1 RNA with U25G, G28A, U29G, U30A, A31G
DNA 1: CAATCTGAATTCCGGTCTCCC
DNA 2: TGGTGGCTACGACGGGATT
B12: UUUACAG (DNA:RNA)
RNA: B2 RNA with G25U, A27U, C28A, A29C, G30A, U31G
DNA 1: CAATCTGAATTCCGGTCTCCC
DNA 2: TGGTGGCTACGACGGGATT
B13: AAGUAAG (DNA:RNA)
RNA: B2 RNA with G25A, U26A, A27G, C28U, G30A, U31G
DNA 1: CAATCTGAATTCCGGTCTCCC
DNA 2: TGGTGGCTACGACGGGATT
B14: AACCUCC (DNA:RNA)
RNA: B1 RNA with U25A, C26A, G28C, U30C, A31C
DNA 1: CAATCTGAATTCCGGTCTCCC
DNA 2: TGGTGGCTACGACGGGATT
B15: AGGUUAU (DNA:RNA)
RNA: B2 RNA with G25A, U26G, A27G, C28U, A29U, G30A
DNA 1: CAATCTGAATTCCGGTCTCCC
DNA 2: TGGTGGCTACGACGGGATT
B16: UUAGAGU (DNA:RNA)
RNA: B2 RNA with G25U, C28G
DNA 1: CAATCTGAATTCCGGTCTCCC
DNA 2: TGGTGGCTACGACGGGATT
B17: UCCGGGC (DNA:RNA)
RNA: B1 RNA with U29G, U30G, A31C
DNA 1: CAATCTGAATTCCGGTCTCCC
DNA 2: TGGTGGCTACGACGGGATT
B18: AAAAAUU (DNA:RNA)
RNA: B2 RNA with G25A, U26A, C28A, G30U
DNA 1: CAATCTGAATTCCGGTCTCCC
DNA 2: TGGTGGCTACGACGGGATT
B19: AUAAUUU (DNA:RNA)
RNA: B2 RNA with G25A, C28A, A29U, G30U
DNA 1: CAATCTGAATTCCGGTCTCCC
DNA 2: TGGTGGCTACGACGGGATT
B20: CGAUUGG (DNA:RNA)
RNA: B2 RNA with G25C, U26G, C28U, A29U, U31G
DNA 1: CAATCTGAATTCCGGTCTCCC
DNA 2: TGGTGGCTACGACGGGATT

The assay addresses T1, RBFOX1 RRM RbFoxmut (Fox-RRM*). The experiment in a line: EMSA; HiTS-Eq, 1 nM pool, 10 min; buffer printed only for the single-RNA assays: 10 mM Tris pH 7.5, 150 mM NaCl, 3.4 mM EDTA, 0.001% NP-40, 30 C. The note with it: tags: His6 N-terminal (pET28a); label: 5' 32P. Summed up: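 Purified wild-type or mutant RbFox RRM at increasing concentrations was equilibrated with 1 nM of 5′-radiolabelled RNA carrying 7 randomized nucleotides for 10 min in 50 µL. Unbound RNA was separated by 8% native PAGE and sequenced. Relative association constants came from read-count changes of each RNA species compared with the control reaction, normalised to the cognate motif.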
For B1, the binding signal was 0.0875 KA relative to UGCAUGU. With B2, the binding signal was 0.0854 KA relative to UGCAUGU. The result for B3 reads 0.0631 KA relative to UGCAUGU; that for B4, 0.0664 KA relative to UGCAUGU; that for B5, 0.0581 KA relative to UGCAUGU.

Take B6: the binding signal was 0.117 KA relative to UGCAUGU. Take B7: the binding signal is 0.0941 KA relative to UGCAUGU. With B8 the figure was 0.136 KA relative to UGCAUGU; with B9, 0.0865 KA relative to UGCAUGU. The result for B10 reads 0.104 KA relative to UGCAUGU. The result for B11 reads 0.114 KA relative to UGCAUGU; that for B12, 0.0734 KA relative to UGCAUGU.

Take B13: the binding signal is 0.119 KA relative to UGCAUGU. The result for B14 reads 0.0508 KA relative to UGCAUGU. Take B15: the binding signal was 0.102 KA relative to UGCAUGU. With B16 the figure was 0.151 KA relative to UGCAUGU; with B17, 0.045 KA relative to UGCAUGU; with B18, 0.0756 KA relative to UGCAUGU.

On to B19, for which the binding signal is 0.103 KA relative to UGCAUGU. The result for B20 reads 0.143 KA relative to UGCAUGU.
